# Where a chain is given by its changes, count along the chain named. No constants are given. Whether binding was seen depends on the method and setting. In cells and extracts the contact can be indirect. Some binding calls cover weakened binding; strength is not graded here. Sequences can lack the tags named with a protein.
# Chains of the proteins cited; added tags and fusions are not shown. Residues count along the entry.
# UniProt Q92973: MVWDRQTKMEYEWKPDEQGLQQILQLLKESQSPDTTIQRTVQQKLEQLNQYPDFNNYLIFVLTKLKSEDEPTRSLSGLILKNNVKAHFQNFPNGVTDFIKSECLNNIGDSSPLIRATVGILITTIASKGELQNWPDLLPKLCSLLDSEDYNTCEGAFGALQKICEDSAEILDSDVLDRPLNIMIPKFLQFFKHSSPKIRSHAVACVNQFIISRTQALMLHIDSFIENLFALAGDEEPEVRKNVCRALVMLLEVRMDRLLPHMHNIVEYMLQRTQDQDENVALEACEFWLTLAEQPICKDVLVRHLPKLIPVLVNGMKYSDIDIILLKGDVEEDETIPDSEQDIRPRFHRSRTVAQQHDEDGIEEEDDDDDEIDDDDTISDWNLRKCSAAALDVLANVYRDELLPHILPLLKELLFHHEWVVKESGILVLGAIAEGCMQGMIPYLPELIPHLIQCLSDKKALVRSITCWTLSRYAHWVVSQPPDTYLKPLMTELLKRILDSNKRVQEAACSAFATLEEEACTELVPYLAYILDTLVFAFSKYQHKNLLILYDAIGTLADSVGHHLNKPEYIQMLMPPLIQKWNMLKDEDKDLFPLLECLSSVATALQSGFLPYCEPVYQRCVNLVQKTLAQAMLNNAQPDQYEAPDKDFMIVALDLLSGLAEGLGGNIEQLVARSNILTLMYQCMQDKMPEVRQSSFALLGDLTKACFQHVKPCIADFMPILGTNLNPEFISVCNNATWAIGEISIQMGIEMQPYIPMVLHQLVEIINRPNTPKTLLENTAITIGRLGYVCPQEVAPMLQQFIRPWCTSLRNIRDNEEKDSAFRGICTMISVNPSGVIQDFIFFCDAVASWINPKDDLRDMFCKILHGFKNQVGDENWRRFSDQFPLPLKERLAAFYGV
# UniProt Q12796: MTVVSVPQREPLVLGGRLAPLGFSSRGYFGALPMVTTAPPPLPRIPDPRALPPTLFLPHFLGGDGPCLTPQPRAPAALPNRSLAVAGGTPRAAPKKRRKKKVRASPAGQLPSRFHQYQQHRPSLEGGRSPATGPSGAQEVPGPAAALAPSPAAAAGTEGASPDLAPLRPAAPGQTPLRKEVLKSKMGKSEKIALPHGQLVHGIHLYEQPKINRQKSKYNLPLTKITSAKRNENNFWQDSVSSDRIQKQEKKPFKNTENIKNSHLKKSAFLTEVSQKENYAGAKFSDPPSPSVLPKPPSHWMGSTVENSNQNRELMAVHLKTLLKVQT
# UniProt Q13761: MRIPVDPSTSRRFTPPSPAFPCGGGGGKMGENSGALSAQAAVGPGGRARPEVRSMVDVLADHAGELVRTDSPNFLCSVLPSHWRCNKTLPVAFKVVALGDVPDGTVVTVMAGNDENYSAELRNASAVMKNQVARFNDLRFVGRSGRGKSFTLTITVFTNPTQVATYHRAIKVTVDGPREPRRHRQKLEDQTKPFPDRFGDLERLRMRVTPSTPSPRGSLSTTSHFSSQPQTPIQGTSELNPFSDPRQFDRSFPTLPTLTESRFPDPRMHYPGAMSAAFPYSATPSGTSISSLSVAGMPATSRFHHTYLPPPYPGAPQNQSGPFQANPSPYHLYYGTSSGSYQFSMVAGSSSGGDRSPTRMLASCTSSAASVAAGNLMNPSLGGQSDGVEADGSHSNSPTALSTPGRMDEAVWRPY
# UniProt P52948, residues 1-880: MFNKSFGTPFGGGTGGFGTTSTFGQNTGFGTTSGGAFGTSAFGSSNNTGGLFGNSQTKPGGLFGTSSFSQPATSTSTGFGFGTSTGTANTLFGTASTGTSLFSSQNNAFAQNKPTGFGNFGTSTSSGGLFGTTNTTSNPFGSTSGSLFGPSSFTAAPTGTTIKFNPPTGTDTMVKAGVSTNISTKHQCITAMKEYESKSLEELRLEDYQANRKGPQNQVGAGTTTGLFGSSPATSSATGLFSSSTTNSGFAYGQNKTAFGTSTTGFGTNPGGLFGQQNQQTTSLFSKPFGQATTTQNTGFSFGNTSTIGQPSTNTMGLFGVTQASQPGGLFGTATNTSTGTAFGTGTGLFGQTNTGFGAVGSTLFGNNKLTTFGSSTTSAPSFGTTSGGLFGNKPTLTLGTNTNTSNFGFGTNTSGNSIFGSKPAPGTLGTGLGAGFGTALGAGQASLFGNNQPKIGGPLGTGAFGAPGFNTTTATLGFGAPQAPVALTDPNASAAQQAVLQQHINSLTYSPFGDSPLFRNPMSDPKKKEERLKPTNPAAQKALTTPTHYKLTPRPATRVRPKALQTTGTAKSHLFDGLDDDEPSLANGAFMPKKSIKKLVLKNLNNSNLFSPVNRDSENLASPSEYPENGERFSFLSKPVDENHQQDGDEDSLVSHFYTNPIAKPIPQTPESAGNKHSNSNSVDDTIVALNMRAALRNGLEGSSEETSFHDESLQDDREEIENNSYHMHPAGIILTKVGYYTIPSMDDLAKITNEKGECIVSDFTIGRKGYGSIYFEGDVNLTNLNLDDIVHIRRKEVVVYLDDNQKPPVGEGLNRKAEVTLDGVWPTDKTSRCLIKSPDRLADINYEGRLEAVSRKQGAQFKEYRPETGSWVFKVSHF
# B1: T7-hRIP (protein, UniProt P52594 1-562)
# chain: MAASAKRKQEEKHLKMLRDMTGLPHNRKCFDCDQRGPTYVNMTVGSFVCTSCSGSLRGLNPPHRVKSISMTTFTQQEIEFLQKHGNEVCKQIWLGLFDDRSSAIPDFRDPQKVKEFLQEKYEKKRWYVPPEQAKVVASVHASISGSSASSTSSTPEVKPLKSLLGDSAPTLHLNKGTPSQSPVVGRSQGQQQEKKQFDLLSDLGSDIFAAPAPQSTATANFANFAHFNSHAAQNSANADFANFDAFGQSSGSSNFGGFPTASHSPFQPQTTGGSAASVNANFAHFDNFPKSSSADFGTFNTSQSHQTASAVSKVSTNKAGLQTADKYAALANLDNIFSAGQGGDQGSGFGTTGKAPVGSVVSVPSQSSASSDKYAALAELDSVFSSAATSSNAYTSTSNASSNVFGTVPVVASAQTQPASSSVPAPFGATPSTNPFVAAAGPSVASSTNPFQTNARGATAATFGTASMSMPTGFGTPAPYSLPTSFSGSFQQPAFPAQAAFPQQTAFSQQPNGAGFAAFGQTKPVVTPFGQVAAAGVSSNPFMTGAPTGQFPTGSSSTNPFL
# B2: FLAG-KLHL6 (protein, UniProt Q8WZ60 1-621)
# chain: MLMAGQRGAWTMGDVVEKSLEGPLAPSTDEPSQKTGDLVEILNGEKVKFDDAGLSLILQNGLETLRMENALTDVILCVDIQEFSCHRVVLAAASNYFRAMFCNDLKEKYEKRIIIKGVDAETMHTLLDYTYTSKALITKQNVQRVLEAANLFQFLRMVDACASFLTEALNPENCVGILRLADTHSLDSLKKQVQSYIIQNFVQILNSEEFLDLPVDTLHHILKSDDLYVTEEAQVFETVMSWVRHKPSERLCLLPYVLENVRLPLLDPWYFVETVEADPLIRQCPEVFPLLQEARMYHLSGNEIISERTKPRMHEFQSEVFMIIGGCTKDERFVAEVTCLDPLRRSRLEVAKLPLTEHELESENKKWVEFACVTLKNEVYISGGKETQHDVWKYNSSINKWIQIEYLNIGRWRHKMVVLGGKVYVIGGFDGLQRINNVETYDPFHNCWSEAAPLLVHVSSFAATSHKKKLYVIGGGPNGKLATDKTQCYDPSTNKWSLKAAMPVEAKCINAVSFRDRIYVVGGAMRALYAYSPLEDSWCLVTQLSHERASCGIAPCNNRLYITGGRDEKNEVIATVLCWDPEAQKLTEECVLPRGVSHHGSVTIRKSYTHIRRIVPGAVSV
# B3: FLAG-NUPL2 (protein, UniProt O15504 1-423)
# chain: MAICQFFLQGRCRFGDRCWNEHPGARGAGGGRQQPQQQPSGNNRRGWNTTSQRYSNVIQPSSFSKSTPWGGSRDQEKPYFSSFDSGASTNRKEGFGLSENPFASLSPDEQKDEKKLLEGIVKDMEVWESSGQWMFSVYSPVKKKPNISGFTDISPEELRLEYHNFLTSNNLQSYLNSVQRLINQWRNRVNELKSLNISTKVALLSDVKDGVNQAAPAFGFGSSQAATFMSPGFPVNNSSSDNAQNFSFKTNSGFAAASSGSPAGFGSSPAFGAAASTSSGISTSAPAFGFGKPEVTSAASFSFKSPAASSFGSPGFSGLPASLATGPVRAPVAPAFGGGSSVAGFGSPGSHSHTAFSKPSSDTFGNSSISTSLSASSSIIATDNVLFTPRDKLTVEELEQFQSKKFTLGKIPLKPPPLELLNV
# B4: HA-tagged wild-type MX2 (protein, UniProt P20592 1-715)
# chain: MSKAHKPWPYRRRSQFSSRKYLKKEMNSFQQQPPPFGTVPPQMMFPPNWQGAEKDAAFLAKDFNFLTLNNQPPPGNRSQPRAMGPENNLYSQYEQKVRPCIDLIDSLRALGVEQDLALPAIAVIGDQSSGKSSVLEALSGVALPRGSGIVTRCPLVLKLKKQPCEAWAGRISYRNTELELQDPGQVEKEIHKAQNVMAGNGRGISHELISLEITSPEVPDLTIIDLPGITRVAVDNQPRDIGLQIKALIKKYIQRQQTINLVVVPCNVDIATTEALSMAHEVDPEGDRTIGILTKPDLMDRGTEKSVMNVVRNLTYPLKKGYMIVKCRGQQEITNRLSLAEATKKEITFFQTHPYFRVLLEEGSATVPRLAERLTTELIMHIQKSLPLLEGQIRESHQKATEELRRCGADIPSQEADKMFFLIEKIKMFNQDIEKLVEGEEVVRENETRLYNKIREDFKNWVGILATNTQKVKNIIHEEVEKYEKQYRGKELLGFVNYKTFEIIVHQYIQQLVEPALSMLQKAMEIIQQAFINVAKKHFGEFFNLNQTVQSTIEDIKVKHTAKAENMIQLQFRMEQMVFCQDQIYSVVLKKVREEIFNPLGTPSQNMKLNSHFPSNESSVSSFTEIGIHLNAYFLETSKRLANQIPFIIQYFMLRENGDSLQKAMMQILQEKNRYSWLLQEQSETATKRRILKERIYRLTQARHALCQFSSKEIH
# What was measured:
# HA-tagged MX1 (human) [1] = target: T1, HA-tagged MX1 (human) (UniProt P20591); experiment: co-IP; 293T co-transfected with triple-HA and FLAG-tagged constructs; isotonic lysis buffer (PBS, 0.5% Triton-X100), sonication; anti-HA magnetic beads 2 h at 4°C; immunoblot with anti-FLAG
# T1 sequence: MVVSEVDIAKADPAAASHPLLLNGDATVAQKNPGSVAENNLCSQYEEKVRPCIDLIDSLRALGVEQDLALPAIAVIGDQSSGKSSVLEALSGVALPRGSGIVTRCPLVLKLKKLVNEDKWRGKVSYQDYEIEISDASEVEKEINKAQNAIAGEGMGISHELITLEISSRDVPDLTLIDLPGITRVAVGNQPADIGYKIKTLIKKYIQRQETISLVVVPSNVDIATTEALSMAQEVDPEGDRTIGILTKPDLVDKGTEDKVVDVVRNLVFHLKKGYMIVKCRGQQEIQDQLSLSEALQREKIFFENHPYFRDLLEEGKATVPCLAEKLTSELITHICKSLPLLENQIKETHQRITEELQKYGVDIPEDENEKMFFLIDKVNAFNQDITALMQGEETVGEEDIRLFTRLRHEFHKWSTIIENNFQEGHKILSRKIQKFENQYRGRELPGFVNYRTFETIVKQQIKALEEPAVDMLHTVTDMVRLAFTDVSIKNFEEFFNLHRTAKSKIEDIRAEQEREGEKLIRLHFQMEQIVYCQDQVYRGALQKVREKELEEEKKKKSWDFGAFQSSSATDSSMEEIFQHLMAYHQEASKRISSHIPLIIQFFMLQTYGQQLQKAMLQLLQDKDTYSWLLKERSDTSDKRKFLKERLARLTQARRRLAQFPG
# [2] = target: T2, HA-tagged mutant RRR11-13A MX2 (human) (UniProt P20592); experiment: as above
# T2 sequence: B4 chain with R11A, R12A, R13A
# [3] = target: T3, HA-tagged wild-type MX2 (human) (UniProt P20592); experiment: as above
# T3 sequence: B4 chain
# [4] = target: T2, HA-tagged mutant RRR11-13A MX2 (human); experiment: co-IP; 293T co-transfected with triple-HA and FLAG- or T7-tagged constructs; hypotonic lysis buffer (10 mM Tris-HCl pH 8.0, 10 mM KCl), Dounce homogenization, then 100 mM KCl and 0.3% Triton X-100; anti-HA magnetic beads 2 h at 4°C; wash with 200 mM KCl, 0.3% Triton X-100; used for PNRC1, KLHL6 and hRIP
# [5] = target: T3, HA-tagged wild-type MX2 (human); experiment: as above
# HA-tagged MX1 (human) [6] = target: T1, HA-tagged MX1 (human); experiment: as above
# [7] = target: T2, HA-tagged mutant RRR11-13A MX2 (human); experiment: co-IP; 293T co-transfected with triple-HA and FLAG-tagged constructs; isotonic lysis buffer (PBS, 0.5% Triton-X100), sonication; anti-HA magnetic beads 2 h at 4°C; immunoblot with anti-FLAG; remark: listed apart in the source
# [8] = target: T3, HA-tagged wild-type MX2 (human); experiment: as above; remark: listed apart in the source
# FLAG-TNPO1 = FLAG-TNPO1 (UniProt Q92973); experiment: co-IP; 293T co-transfected with HA-tagged MX2 and FLAG-tagged constructs; isotonic lysis buffer; anti-FLAG (M2) magnetic beads 2 h at 4°C; immunoblot with anti-HA
Molecule,binding [2],binding [4],binding [5],also measured
FLAG-TNPO1 (from UniProt Q92973 1-898),binds,,,binding (HA-tagged MX1 (human) [1]): no binding; binding [3]: binds
PNRC1-FLAG (from UniProt Q12796 1-327),,binds weakly,binds,
RUNX3-FLAG (from UniProt Q13761 1-415),binds,,,
FLAG-NUP98 (from UniProt P52948 1-880),binds weakly,,,binding [3]: binds
B1,,binds,binds,binding (HA-tagged MX1 (human) [6]): no binding
B2,,binds,binds,
B3,,,,binding [7]: binds; binding [8]: binds
B4,,,,binding (FLAG-TNPO1): binds
